# Hit rate of the full screen: of about 280,000 compounds, about 540 (0.19%) were called active. About 2% were inconclusive and are not listed. The call rests on the fitted dose curve; in most records, active means well fitted activation curve with a large enough effect; inconclusive means small, poorly fitted or top-dose-only effect; inactive means flat fitted curve, though single readings scatter. The entries are a selection whose mix differs from that of the whole data set.
# Assay: Quantitative High-Throughput Screen for Regulators of Epigenetic Control; further: nearly all actives have a fitted effect of over 60% in size; on GFP activation: % of control where 0% means no effect
# Conditions: murine LDR cells, GFP reporter derepression, 30 h; series mostly up to 53.9 µM; GFP activation: at the top concentration
# Excerpt: NIH Molecular Libraries Screening Centers Network [MLPCN] NIH Chemical Genomics Center [NCGC] MLSCN Grant: 1 X01 MH079860-01 Assay Provider: Elisabeth D. Martinez, University of Texas SW Medical Center NCGC Assay Overview: The Locus Derepression (LDR) assay detects the derepression or induction of a GFP reporter that is stably integrated in a genomic region of murine cells that is presumably silenced. Transcription of the GFP reporter is controlled by a CMV promoter, which normally is constitutively active. However, this cell line, termed LDR, was selected for lack of constitutive production of GFP. GFP production can be induced by incubating the cells with histone deacetylase or DNA methyltransferase inhibitors (Martinez et al., 2006). Compounds that derepress or induce this reporter locus are identified by enumerating GFP positive cells using a laser-scanning microplate cytometer (Auld et al., 2006). This assay was screened against the MLSMR earlier (AID 597; (Johnson et al., 2008) and has been rescreened here against the expanded collection.
# NCGC Assay Protocol Summary: Three hundred LDR cells in 5 uL per well were dispensed into black, clear-bottom 1536-well plates. Twenty-three nL compound was transferred to the assay plate and cells were incubated 30 hours at 37 C. Medium was removed, cells were washed two times with PBS, and GFP-positive cells were enumerated as fluorescent objects between the sizes of 20 to 120 um width and depth using an Acumen Explorer. References Auld, DS, Johnson, RL, Zhang, YQ, Veith, H, Jadhav, A, Yasgar, A, Simeonov, A, Zheng, W, Martinez, ED, Westwick, JK, Austin, CP, Inglese, J (2006). Fluorescent protein-based cellular assays analyzed by laser-scanning microplate cytometry in 1536-well plate format. Methods Enzymol 414: 566-89. Johnson, RL, Huang, W, Jadhav, A, Austin, CP, Inglese, J, Martinez, ED (2008). A quantitative high-throughput screen identifies potential epigenetic modulators of gene expression. Anal Biochem 375: 237-48. Martinez, ED, Dull, AB, Beutler, JA, Hager, GL (2006). High-content fluorescence-based screening for epigenetic modulators. Methods Enzymol 414: 21-36.
# Potency means the concentration at half of the fitted maximal effect.
SMILES,Potency,GFP activation
COc1ccc(-[n+]2c(C)cc(/C=C3\Sc4ccccc4N3C)cc2C)cc1,active: 3.16 µM,–
CC[n+]1c(/C=C/c2c[nH]c3ccccc23)ccc2cc(C)ccc21,active: 4.47 µM,–
COc1ccc2cc(C#N)c(NC(C)C)nc2c1,–,inactive: -15.9%
COc1cc(C2NC(=O)NC(c3ccccc3)=C2C(C)=O)ccc1OCC#N (centres undefined),–,inactive: 2.56%
Cc1cc(C)c(C)c(S(=O)(=O)Nc2ccccc2C(=O)O)c1C,–,inactive: -1.43%
COC(=O)c1cc2occc2n1Cc1nc(-c2cccc(Cl)c2)oc1C,–,inactive: -4.29%
Cn1cc(C2=C(c3cn(CCCSC(=N)N)c4ccccc34)C(=O)NC2=O)c2ccccc21,–,inactive: 0%
NC(=O)c1c(-c2ccccc2)oc2ccc(O)cc12,–,inactive: -11.1%
BrC(/C=N/Nc1nc(N2CCOCC2)nc(N2CCOCC2)n1)=C/c1ccccc1,–,inactive: 1.69%
COc1ccc(NC(=O)CSc2nc3c(oc4ccccc43)c(=O)n2Cc2ccco2)cc1Cl,active: 3.55 µM,–
COc1ccc(S(=O)(=O)N2CCCC2C(=O)Nc2ccc(C)cc2)cc1 (centres undefined),–,inactive: -12.7%
O=C(O)CCC(=O)N1CCC[C@H]1C(=O)O,–,inactive: 0%
O=C1NCN(c2ccccc2)C12CCN(CCCC(c1ccc(F)cc1)c1ccc(F)cc1)CC2,inactive,–
CCOC(=O)C(C)Sc1ccc2nnc(CCNS(=O)(=O)c3ccc(C)cc3)n2n1 (centres undefined),–,inactive: -5.88%
CCOc1ccc2c(c1)C(C)=CC(C)(C)N2,–,inactive: 0.348%
O=C(Nc1cccc(OCc2cc(=O)n3c4c(sc3n2)CCCC4)c1)c1ccc(F)cc1,active: 25.1 µM,–
Cc1cc(C2CCCCC2)n(O)c(=O)c1,–,inactive: 5.33%
CC(C)(C)c1ccc(Oc2nc3ccccn3c(=O)c2/C=C(\C#N)c2nc3ccccc3[nH]2)cc1,active: 25.1 µM,–
COC(=O)c1ccccc1SC(CC(=O)c1ccccc1)c1ccc(F)cc1 (centres undefined),active: 22.4 µM,–
CCCC[C@H]1C(=O)N(c2ccccc2)N(c2ccc(O)cc2)C1=O,–,inactive: 1.37% [at 16.9 µM]
COc1ccc(N2CCN(S(=O)(=O)c3ccc(OC)c(-c4noc(C)n4)c3)CC2)cc1,active: 5.01 µM,–
C/C(=N\NC(=O)C(C)Oc1ccc([N+](=O)[O-])cc1)c1ccccn1 (centres undefined),active: 15.8 µM,–
CCOCCc1nnc(NC(=O)c2ccc(OC)c(OC)c2)s1,–,inactive: -14.3%
C=C1C(=O)O[C@@H]2[C@H]3O[C@]3(C)CC/C=C(\C)CC[C@@H]12,–,inactive: 0%
CCCCCCCCCCCCCCCC(=O)NCCO,inactive,–

SMILES,Potency,GFP activation
Cc1nn(C)cc1CNC(=O)c1ccc(Br)o1,–,inactive: -11.6%
CCCc1[nH]nc2c1C1(CCOC1C)C(C#N)=C(N)O2 (centres undefined),–,inactive: -12.1%
CCOC(=O)c1ccc(N=c2sc(C(=O)OC)cc(=O)n2CCCN2CCOCC2)cc1,–,inactive: 8.74%
CCCCCCCCCCCCCCCC(=O)NCCc1ccc(O)c(O)c1,–,inactive: 7.67%
CCN(CCCNC(=O)COc1cc(=O)n(CC)c2ccccc12)Cc1ccccc1,–,inactive: 3.17%
COc1cccc(NC(=O)CSc2c3c(nc4ccccc24)CCCC3)c1,–,inactive: 6.55%
Cc1nn(C(=O)c2ccoc2C)c(N)c1-c1ccccc1,–,inactive: -1.01%
Cc1ccc(-c2cccc(NC(=O)C3C4C=CC(C4)C3C(=O)O)c2)o1 (centres undefined),–,inactive: 1.03%
O=C(CCN1C(=O)/C(=C\c2cccs2)SC1=S)Nc1ccccn1,–,inactive: 8.23%
Cc1ccc2nc(SCC(=O)Nc3ccc4sc(C)nc4c3)c(C#N)cc2c1,active: 5.62 µM,–
O=c1c2cn[nH]c2nc(SCc2c(F)cccc2F)n1-c1ccc(Cl)cc1,–,inactive: -6.53%
Cc1ccc(-c2nc(SCC(=O)NCC3CCCO3)c(-c3ccc(C)cc3)[nH]2)cc1 (centres undefined),–,inactive: 1.71%
Cc1ccc(/C=C2/NC(=O)N(Cc3ccccc3)C2=O)s1,active: 25.1 µM,–
COc1ccccc1-c1nc(C#N)c(N2CCN(c3ccccc3)CC2)o1,–,inactive: -3.17%
CC(=O)OCC1OC(C#Cc2ccccc2)C=CC1OC(C)=O (centres undefined),–,inactive: 15.9% [at 10.1 µM]
COC(=O)C1=C(C)N(Cc2ccccc2)C2=C3C(=O)N(c4ccccc4)C(=O)C3[C@@](O)(C(=O)OC)C(=O)N2C1c1ccccc1 (some centres undefined),–,inactive: 0.833% [at 10.1 µM]
COC1C=CO[C@@]2(C)Oc3c(C)c(O)c4c(O)c(c(C=NN5CCN(C)CC5)c(O)c4c3C2=O)NC(=O)/C(C)=C\C=CC(C)C(O)[C@@H](C)C(O)C(C)[C@H](OC(C)=O)C1C (some centres undefined),–,inactive: 0.833%
CCN(CC)c1ccc2cc(-c3nc4ccccc4[nH]3)c(=O)oc2c1,active: 2.82 µM,–
COC1(OC)N=C(N)C2(C#N)C(c3ccc(F)cc3)C12C#N (centres undefined),–,inactive: -9.52%
CCCN1C(=O)/C(=C\C=C2\N(CC)c3ccccc3C2(C)C)SC1=S,–,inactive: -5.8%
O=C(CSc1ncn[nH]1)OCN1C(=O)c2ccccc2C1=O,–,inactive: -1.11%
CC(C)Cn1c(N)c(C(=O)COC(=O)c2cc(C(F)(F)F)nc3c(C(F)(F)F)cccc23)c(=O)n(C)c1=O,–,inactive: 13.9%
N#C/C(=C\c1cccs1)c1nc2ccccc2[nH]1,–,inactive: -1.77%
COC(=O)[C@@]1(Cc2ccc(OC)cc2)[C@H]2c3cc(C(=O)N4CCCC4)n(Cc4ccc(OC)c(OC)c4)c3C[C@H]2CN1C(=O)c1ccccc1,–,inactive: 2.94%
